Test results as given in the supplement of paper PMC8728848.
This is one part of the list.

Key:
Assay in all cases: glycan array binding signal (z-score within array); higher = stronger binding
Conditions in all cases: glycan notation: IUPAC condensed, linker removed
[1] = molecular target: Gal6S(b1-3)GlcNAc
Summary of the method: (§1)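 Columns mapping to the same glycan were averaged after glycan names were converted to IUPAC-condensed notation. The data come from 3228 arrays in the Consortium for Functional Glycomics database, limited to those with an available protein sequence. Binding is reported as a within-array Z-score averaged across arrays of one protein sequence and across linkers.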

[2] = molecular target: Gal6S(b1-3)GlcNAc6S
Summary of the method: as §1

[3] = molecular target: Gal6S(b1-4)Glc
Summary of the method: as §1

[4] = molecular target: Gal6S(b1-4)Glc6S
Summary of the method: as §1

[5] = molecular target: Gal6S(b1-4)GlcNAc
Summary of the method: as §1

[6] = molecular target: Gal6S(b1-4)GlcNAc6S
Summary of the method: as §1

[7] = molecular target: GalNAc(a1-3)Gal
Summary of the method: as §1

[8] = molecular target: GalNAc(a1-3)GalNAc
Summary of the method: as §1

[9] = molecular target: GalNAc(a1-3)GalNAc(a1-3)Gal(a1-4)Gal(b1-4)GlcNAc
Summary of the method: as §1

[10] = molecular target: GalNAc(a1-3)GalNAc(b1-3)Gal(a1-4)Gal(b1-4)Glc
Summary of the method: as §1

[11] = molecular target: GalNAc(a1-3)GalNAc(b1-3)Gal(a1-4)Gal(b1-4)GlcNAc
Summary of the method: as §1

[12] = molecular target: GalNAc(b1-3)Gal
Summary of the method: as §1

[13] = molecular target: GalNAc(b1-3)Gal(a1-4)Gal(b1-4)GlcNAc
Summary of the method: as §1

[14] = molecular target: GalNAc(b1-3)Gal(a1-4)Gal(b1-4)GlcNAc(b1-3)Gal(b1-4)Glc
Summary of the method: as §1

[15] = molecular target: GalNAc(b1-3)Gal(a1-6)Gal(b1-4)Glc
Summary of the method: as §1

[16] = molecular target: GalNAc(b1-3)GalNAc
Summary of the method: as §1

[17] = molecular target: GalNAc(b1-4)Gal(b1-4)Glc
Summary of the method: as §1

[18] = molecular target: GalNAc(b1-4)GlcNAc
Summary of the method: as §1

[19] = molecular target: GalNAc(b1-4)GlcNAc(b1-2)Man(a1-3)[GalNAc(b1-4)GlcNAc(b1-2)Man(a1-6)]Man(b1-4)GlcNAc(b1-4)GlcNAc
Summary of the method: as §1

[20] = molecular target: GalNAc(b1-4)GlcNAc6S
Summary of the method: as §1

[21] = molecular target: GalNAc(b1-6)GalNAc
Summary of the method: as §1

[22] = molecular target: GalNAc3S(b1-4)GlcNAc
Summary of the method: as §1

[23] = molecular target: GalNAc3S(b1-4)GlcNAc3S
Summary of the method: as §1

[24] = molecular target: GalNAc4S6S(b1-4)GlcNAc
Summary of the method: as §1

[25] = molecular target: GalNAc6S(b1-4)GlcNAc
Summary of the method: as §1

[26] = molecular target: Glc(a1-4)Glc
Summary of the method: as §1

[27] = molecular target: Glc(a1-4)Glc(a1-4)Glc(a1-4)Glc
Summary of the method: as §1

[28] = molecular target: Glc(a1-6)Glc(a1-6)Glc
Summary of the method: as §1

[29] = molecular target: Glc(a1-6)Glc(a1-6)Glc(a1-6)Glc
Summary of the method: as §1

[30] = molecular target: Glc(b1-4)Glc
Summary of the method: as §1

[31] = molecular target: Glc(b1-6)Glc
Summary of the method: as §1

[32] = molecular target: GlcA(b1-3)Gal
Summary of the method: as §1

[33] = molecular target: GlcA(b1-3)GlcNAc
Summary of the method: as §1

[34] = molecular target: GlcA(b1-6)Gal
Summary of the method: as §1

[35] = molecular target: GlcNAc(a1-3)Gal(b1-4)GlcNAc
Summary of the method: as §1

[36] = molecular target: GlcNAc(a1-4)Gal(b1-3)GlcNAc
Summary of the method: as §1

[37] = molecular target: GlcNAc(a1-4)Gal(b1-4)GalNAc
Summary of the method: as §1

[38] = molecular target: GlcNAc(a1-4)Gal(b1-4)GlcNAc
Summary of the method: as §1

B1: Gal 4 (Homo sapiens), Q8K419 (protein)
chain: MAYVPAPGYQPTYNPTLPYKRPIPGGLSVGMSVYIQGMAKENMRRFHVNFAVGQDDGADVAFHFNPRFDGWDKVVFNTMQSGQWGKEEKKKSMPFQKGKHFELVFMVMPEHYKVVVNGNSFYEYGHRLPVQMVTHLQVDGDLELQSINFLGGQPAAAPYPGAMTIPAYPAGSPGYNPPQMNTLPVMTGPPVFNPRVPYVGALQGGLTVRRTIIIKGYVLPTARNFVINFKVGSSGDIALHLNPRIGDSVVRNSFMNGSWGAEERKVAYNPFGPGQFFDLSIRCGMDRFKVFANGQHLFDFSHRFQAFQMVDTLEINGDITLSYVQI
glycan array binding signal (z-score) [1]: -0.207 | glycan array binding signal (z-score) [2]: -0.196 | glycan array binding signal (z-score) [3]: -0.206 | glycan array binding signal (z-score) [4]: -0.201 | glycan array binding signal (z-score) [5]: -0.202 | glycan array binding signal (z-score) [6]: -0.193 | glycan array binding signal (z-score) [7]: -0.199 | glycan array binding signal (z-score) [8]: -0.205 | glycan array binding signal (z-score) [9]: -0.039 | glycan array binding signal (z-score) [10]: 0.616 | glycan array binding signal (z-score) [11]: 0.701 | glycan array binding signal (z-score) [12]: 0.837 | glycan array binding signal (z-score) [13]: -0.146 | glycan array binding signal (z-score) [14]: 0.464 | glycan array binding signal (z-score) [15]: -0.111 | glycan array binding signal (z-score) [16]: -0.182 | glycan array binding signal (z-score) [17]: -0.211 | glycan array binding signal (z-score) [18]: -0.18 | glycan array binding signal (z-score) [19]: -0.215 | glycan array binding signal (z-score) [20]: -0.07 | glycan array binding signal (z-score) [21]: -0.201 | glycan array binding signal (z-score) [22]: -0.086 | glycan array binding signal (z-score) [23]: -0.214 | glycan array binding signal (z-score) [24]: -0.209 | glycan array binding signal (z-score) [25]: -0.213 | glycan array binding signal (z-score) [26]: -0.206 | glycan array binding signal (z-score) [27]: -0.213 | glycan array binding signal (z-score) [28]: -0.207 | glycan array binding signal (z-score) [29]: -0.214 | glycan array binding signal (z-score) [30]: -0.202 | glycan array binding signal (z-score) [31]: -0.203 | glycan array binding signal (z-score) [32]: -0.192 | glycan array binding signal (z-score) [33]: -0.174 | glycan array binding signal (z-score) [34]: -0.201 | glycan array binding signal (z-score) [35]: -0.175 | glycan array binding signal (z-score) [36]: -0.203 | glycan array binding signal (z-score) [37]: -0.2 | glycan array binding signal (z-score) [38]: -0.196
